What all share (assay): ≥ marks a high value that may be exact or a test limit, other limits are often not marked
Experiment [1] has as its system Staphylococcus aureus NBRC 13276.
Experiment [2] relates to Escherichia coli DH5alpha.
In experiment [3] the test system is Pseudomonas aeruginosa NBRC 13275.
The subject of experiment [4] is Pseudomonas aeruginosa PA330.
For experiment [5], the system named is Pseudomonas aeruginosa PAO1.
The subject of another experiment is Escherichia coli K-12.
Experiment [6] concerns Pseudomonas aeruginosa PA380.
For experiment [7], the system named is Pseudomonas aeruginosa PA214.

Molecules are shown by their SMILES. ≈ marks a conversion by molar mass, not a printed value.

The MIC is the smallest concentration in the dilution series that meets the test's criterion for growth inhibition. A lower MIC goes with a more susceptible organism. For `CC[C@H](C)[C@H](NC(=O)CNC(C)=O)C(=O)NCC(=O)N[C@@H](CCCCN)C(=O)N[C@@H](Cc1ccccc1)C(=O)N[C@@H](CC(C)C)C(=O)N[C@@H](Cc1cnc[nH]1)C(=O)N[C@@H](CO)C(=O)N[C@@H](C)C(=O)N[C@@H](CCCCN)C(=O)N[C@@H](CCCCN)C(=O)N[C@@H](Cc1ccccc1)C(N)=O` [GIGKFLHSAKKF], the figures for the minimum inhibitory concentration (MIC) in experiment [1], in experiment [2] and in experiment [3] were not below 400 µM, not below 200 µM and not below 200 µM, respectively.
For the compound `CC(C)C[C@H](NC(=O)[C@H](C)NC(=O)[C@H](CCCCN)NC(=O)[C@H](Cc1ccccc1)NC(=O)[C@H](CC(C)C)NC(=O)[C@H](CCCCN)NC(=O)[C@H](C)NC(=O)[C@H](Cc1c[nH]c2ccccc12)NC(=O)[C@H](C)NC(=O)[C@H](CCCCN)NC(=O)[C@H](CC(C)C)NC(=O)[C@H](Cc1ccccc1)NC(=O)[C@H](C)NC(=O)[C@H](CCCCN)NC(=O)[C@H](CC(C)C)NC(=O)[C@H](CCCCN)NC(=O)[C@@H](N)CCCCN)C(N)=O` [KKLKAFLKAWAKLFKAL], the MIC worked out at 6.3 µM (≈ 12.6 µg/mL) in experiment [4]; 3.1 µM (≈ 6.21 µg/mL) in experiment [5]; 1.6 µM (≈ 3.21 µg/mL) with Escherichia coli K-12; 1.5 µM (≈ 3.01 µg/mL) in experiment [6]; 3.1 µM (≈ 6.21 µg/mL) in experiment [7].

(Values after DBAASP.)
